Among all 390,000 compounds or so, about 360 (0.092%) were called active. Inconclusive results, whose numbers are uncertain, are shown with a selection of clear calls. The call rests on the fitted dose curve; in most records, active means well fitted inhibition curve with a large enough effect; inconclusive means small, poorly fitted or top-dose-only effect; inactive means no such curve, though single readings can be large or run the other way. Potencies beside an inconclusive call are fits to weak or partial responses and may not hold up.
Each compound was assayed against Isocitrate dehydrogenase [NADP] cytoplasmic (Homo sapiens) (UniProt O75874) (assay: qHTS for Inhibitors of mutant isocitrate dehydrogenase 1 (IDH1): qHTS). Conditions: IDH1-R132H enzyme, NADPH consumption, diaphorase/resazurin fluorescence; series mostly up to 76.6 µM.
Procedure, shortened: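 IDH1-R132H (0.5 ug/mL dispensed) in pH 7.5 Tris buffer was preincubated 30 min with compound, then given a substrate mix of 0.016 mM NADPH and 2 mM alpha-KG for 80 min at room temperature; remaining NADPH was read by diaphorase/resazurin fluorescence.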
Further: nearly all actives have a fitted effect of over 65% in size.
Potency means the concentration at half of the fitted maximal effect; tags describe the fitted curve by direction and shape.

| Structure (SMILES) | Potency |
| --- | --- |
| Cc1ccc(NS(=O)(=O)c2cc([N+](=O)[O-])ccc2NNC(=S)Nc2cccc(Cl)c2)c(C)c1 | inconclusive: 58.5 µM [inhibitor, single point] |
| COCCOC(=O)C1=C(C)N=C2SCCC(=O)N2C1/C=C/c1ccccc1 (stereo not drawn) | inconclusive: 46.5 µM [inhibitor, partial curve] |
| CCOC(=O)c1c(C)oc2c1c(C=NCC1CCCO1)c(O)c1ccccc12 (stereo not drawn) | inactive |
| Cc1cc(Br)cc2c1N(C)C(=O)C2(c1ccc(O)cc1)c1ccc(O)cc1 | inconclusive: 58.5 µM [inhibitor, single point] |
| O=C(Cn1cnc2onc(-c3ccc(F)cc3)c2c1=O)Nc1ccc(F)c(Cl)c1 | inactive |
| CN(C)S(=O)(=O)c1cccc(-c2nn(-c3ccccc3)cc2/C=C2\SC(=S)N(CC(=O)O)C2=O)c1 | inconclusive: 58.5 µM [inhibitor, single point] |
| CCc1nc(N2CCN(C(C)=O)CC2)c2c3c(sc2n1)CC(C(C)(C)C)CC3 (stereo not drawn) | inconclusive: 13.1 µM [inhibitor, partial curve, poor fit] |
| Cc1ccc(N(C(=O)c2nsc(Cl)c2Cl)C(C(=O)NC2CCCC2)c2ccc(O)cc2)cc1C (stereo not drawn) | inconclusive: 39.8 µM [inhibitor, partial curve, poor fit] |
| O=C(CSc1nc2nc(-c3cccs3)cc(C(F)(F)F)c2c(=O)[nH]1)Nc1ccc(F)c(F)c1 | inconclusive: 46.5 µM [inhibitor, partial curve] |
| N#Cc1ccc(N=c2ssnc2Cl)cc1 | inconclusive: 52.1 µM [inhibitor, single point] |
| CC(C)C(c1nnnn1Cc1cccs1)N1CCN(C(=O)c2ccco2)CC1 (stereo not drawn) | inactive |
| CCn1c(=O)c2cc(C(=O)N(C)c3ccc(OC)cc3OC)sc2c2ccccc21 | inconclusive: 52.1 µM [inhibitor, partial curve, poor fit] |
| Cc1ccc(NC2=C(C(=O)c3ccccc3)N(C)S(=O)(=O)c3ccccc32)cc1 | inactive |
| CC(CCC(C)C(C)(C)C)[C@@H]1CC[C@H]2C3C[C@H](OS(O)(=S)=S)[C@H]4C[C@H](OS(O)(=S)=S)[C@@H](OS(O)(=S)=S)C[C@]4(C)[C@H]3CC[C@]12C (stereo partly drawn) (tested in a mixture with another compound) | inconclusive: 50.1 µM [inhibitor, single point] |
| COc1ccccc1CNC(=O)C1CCCN(c2nn3cc(-c4ccc(F)cc4)nc3s2)C1 (stereo not drawn) | inactive |
| CC(=O)NC1C(=O)N(CCN2CCOCC2)c2ccc(Br)cc21 (stereo not drawn) | inconclusive: 58.5 µM [inhibitor, single point] |
| COc1ccccc1N(C(=O)c1snc(C(N)=O)c1N)C(C(=O)NC1CCCCC1)c1cccc(OC)c1OC (stereo not drawn) | inconclusive: 44.7 µM [inhibitor, single point] |
| CC(C)c1ccc(S(=O)(=O)c2ccc(NN)cc2)cc1 | inactive |
| O=C(CCCC(=O)N(c1ccc2c(c1)OCCO2)C(C(=O)NC1CCCCC1)c1ccc(F)cc1)Nc1ccccn1 (stereo not drawn) | active: 9.27 µM |

| Structure (SMILES) | Potency |
| --- | --- |
| CC(=O)NS(=O)(=O)c1ccc(N=c2ssc3c2-c2cc(C)c(C)cc2NC3(C)C)cc1 | inconclusive: 50.1 µM [inhibitor, single point] |
| COc1ccc(-c2n[nH]c3c2C(c2ccc(OC)c(OC)c2)N(c2ccccc2)C3=O)cc1 (stereo not drawn) | inconclusive: 14.7 µM [inhibitor, single point] |
| CCc1nc2nc(C)c(NS(=O)(=O)c3ccc(C(C)(C)C)cc3)c(=O)n2[nH]1 | inconclusive: 70.8 µM [inhibitor, partial curve, poor fit] |
| COC(=O)c1ccc(C2c3c(-c4ccccc4O)n[nH]c3C(=O)N2Cc2cccnc2)cc1 (stereo not drawn) | inconclusive: 50.1 µM [inhibitor, single point] |
| Cc1ccc(Oc2nc(CN3CCOCC3)nc3sc4c(c23)CCC(C)C4)cc1 (stereo not drawn) | inconclusive: 44.7 µM [inhibitor, partial curve, poor fit] |
| Cc1[nH]nc2c1C(c1ccc(-c3ccc(Cl)cc3)o1)C(C#N)=C(N)O2 (stereo not drawn) | inconclusive: 52.1 µM [inhibitor, single point] |
| Cc1n[nH]c(C)c1S(=O)(=O)N(CC(=O)Nc1ccc(C(F)(F)F)cc1)c1ccc(C(C)C)cc1 | inconclusive: 11.2 µM [inhibitor, full curve, poor fit] |
| COC(=O)c1ccc(NC(=S)NC2CCc3ccccc32)cc1 (stereo not drawn) | inactive |
| CCOC(=O)c1ccc(N2C(=O)c3n[nH]c(-c4ccco4)c3C2c2ccc(O)cc2)cc1 (stereo not drawn) | inconclusive: 50.1 µM [inhibitor, single point] |
| O=C1c2ccccc2C(O)(c2ccccc2)N1c1ccncc1 (stereo not drawn) | inconclusive: 58.5 µM [inhibitor, single point] |
| CCOC(=O)C1=C(O)/C(=C/c2ccc(-c3ccccc3C(=O)O)o2)SC1=Nc1ccc(C)cc1 | inconclusive: 58.5 µM [inhibitor, single point] |
| COc1ccc(Cl)cc1-n1c(=S)sc2c(=O)[nH]c(SCC(=O)NCCC(C)C)nc21 | active: 36.9 µM |
| CC(=O)c1ccc(OCc2cc(C(=O)N3CC[C@@H]4CCCC[C@H]4C3)no2)cc1 | inactive |
| Cc1ccc(NC(=O)CSc2nc(-c3cccs3)nc3cc(=O)[nH]n23)cc1C | inconclusive: 50.1 µM [inhibitor, single point] |
| CC(=O)C1=C(c2ccc(F)cc2)N(C(C)=O)n2c(nnc2C2CCCCC2)S1 | inconclusive: 44.7 µM [inhibitor, partial curve, poor fit] |
| O=C(O)CSc1cc(C(=O)c2ccccc2O)cn2c(=O)c3c(-c4ccccc4)csc3nc12 | inconclusive: 58.5 µM [inhibitor, single point] |
| COc1ccc(N/C(=C/[N+](=O)[O-])SC)cc1 | inactive |
| Cc1cc(/C=C2\C(=N)N3N=C(c4ccco4)SC3=NC2=O)c(C)n1Cc1ccccc1 | inconclusive: 58.5 µM [inhibitor, single point] |
| COc1ccc(-c2nc3cnccn3c2Nc2ccc(C)cc2)cc1 | inconclusive: 50.1 µM [inhibitor, single point] |

— PubChem BioAssay AID602179 (National Center for Advancing Translational Sciences (NCATS), 2012)
